Test results from article PMC5107933.
Results are given in words; binding and its absence hold for the method and conditions named. In cells and extracts the contact can be indirect. Some results given as binding are weak or reduced against the parent protein; the word gives no strength.

Chains of the proteins cited; added tags and fusions are not shown.
UniProt G1TJL6: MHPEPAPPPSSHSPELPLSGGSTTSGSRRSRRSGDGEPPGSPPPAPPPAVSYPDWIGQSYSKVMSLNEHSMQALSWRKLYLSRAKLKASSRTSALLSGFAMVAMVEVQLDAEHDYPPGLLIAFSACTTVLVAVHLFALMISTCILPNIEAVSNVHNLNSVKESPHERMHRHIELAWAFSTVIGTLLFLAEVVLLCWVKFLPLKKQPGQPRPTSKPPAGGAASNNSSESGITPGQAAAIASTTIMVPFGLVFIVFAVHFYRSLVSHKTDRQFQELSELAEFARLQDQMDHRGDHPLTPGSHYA

Target: Orai1, endogenous in rabbit skeletal muscle triad vesicles (rabbit (endogenous in skeletal muscle triad vesicles)) (UniProt G1TJL6)
Assay: co-IP; solubilized triad vesicle sample from rabbit skeletal muscle (30 μg of total proteins); immunoprecipitation with anti-Orai1 or anti-MG53 antibody; immunoblot with various antibodies; reaction without antibody as negative control

B1: Mitsugumin 53 (MG53), endogenous in rabbit skeletal muscle triad vesicles (protein, UniProt Q1XH18 1-477)
chain: MSAAPGLLHQELSCPLCLQLFDAPVTAECGHSFCRACLSRVAGEPAADGTVNCPCCQAPTRPQALSTNLQLARLVEGLAQVPQGHCEEHLDPLSIYCEQDRVLVCGVCASLGSHRGHRLLPAAEAHSRLKTQLPQQKLQLQEASMRKEKSVAVLEHQLTEVEETVRQFRGAVGEQLGKMRVFLAALEGSLDREAERVRSEAGVALRRELGGLHSYLEQLRQMEKVLEEVADKPQTEFLMKYCLVTSRLQKILAESPPPARLDIQLPIISDDFKFQVWRKMFRALMPALEELTFDPSSAHPSLVVSPTGRRVECSEQKAPPAGDDARQFDKAVAVVAQQLLSDGEHYWEVEVGDKPRWALGVMASEASRRGRLHAVPSQGLWLLGLRDGKTLEAHVEAKEPRALRTPERRPTRLGLYLSFGDGVLAFYDASDADALELLFAFRERLPGPVYPFFDVCWHDKGKNAQPLLLVGPDGQEA
B1 was tested, and the binding was “binds”.
